Paper PMC11302665 (Microbiology Spectrum, 2024)

Target: T1, L-cysteine desulfurase IscS (E. coli, UniProt P0A6B7 1-404, PLP (pyridoxal phosphate) cofactor)
T1 construct: L-cysteine desulfurase IscS of Escherichia coli; Predicted mass of the dimer with PLP printed as 90,642 Da; also called (IscS)2; dimeric IscS; source: E. coli BL21(DE3), purified following previously described procedures
T1 sequence (looked up): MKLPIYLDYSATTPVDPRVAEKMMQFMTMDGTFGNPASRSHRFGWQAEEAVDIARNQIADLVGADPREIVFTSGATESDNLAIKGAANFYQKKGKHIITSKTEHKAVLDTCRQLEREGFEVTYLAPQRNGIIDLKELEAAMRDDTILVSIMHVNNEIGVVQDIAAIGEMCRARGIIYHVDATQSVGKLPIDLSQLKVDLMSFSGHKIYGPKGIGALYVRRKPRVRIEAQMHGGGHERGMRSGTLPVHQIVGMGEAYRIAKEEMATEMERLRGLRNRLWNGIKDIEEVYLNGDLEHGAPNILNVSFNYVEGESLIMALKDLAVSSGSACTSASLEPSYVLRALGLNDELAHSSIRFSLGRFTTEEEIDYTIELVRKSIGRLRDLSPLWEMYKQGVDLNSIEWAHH
Test: SEC; analytical gel filtration on Superdex 200 in 50 mM Tris-HCl, 200 mM NaCl, pH 8.0; 30 µM IscS with 90 µM IscU or TusA, 20 min at 30°C; complex fractions pooled, concentrated, incubated with the third protein (1:3 ratio) and run again; fractions on 17% SDS-PAGE
Conditions: both partners purified

B1: IscU (natural protein, E. coli, UniProt P0ACD4 1-128, looked up)
chain: MAYSEKVIDHYENPRNVGSFDNNDENVGSGMVGAPACGDVMKLQIKVNDEGIIEDARFKTYGCGSAIASSSLVTEWVKGKSLDEAQAIKNTDIAEELELPPVKIHCSILAEDAIKAAIADYKSKREAK
notes: Iron-sulfur cluster assembly scaffold protein IscU of Escherichia coli; also called scaffold protein IscU; source: E. coli BL21(DE3), purified following previously described procedures; (His)6x-tag cleaved with thrombin and removed on a Ni2+-agarose column
Q: Does B1 bind?
A: binds
